# Measured values taken from the RNAGym collection of RNA variant scans (doi:10.1093/nar/gkz1192).
# The source gives no read counts; variants with many changes may rest on few reads.
# B1: CPEB3 Ribozyme (parent)
# chain: UAACAGGGGGCCACAGCAGAAGCGUUCACGUCGCAGCCCCUGUCAGAUUCUGGUGAAUCUGCGAAUUCUGCUGUAUAUCUC
# Variants of: B1
# Assay: self-cleavage, relative activity (ratio to wild type); higher = more cleavage; in vitro, sequencing
# Outline: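 Barcoded CPEB3 ribozyme mutants, produced by rounds of error-prone PCR, self-cleaved while being transcribed with T7 RNA polymerase for 5 hours at 37°C and during a subsequent 15 min DNase I step before EDTA was added. Sequencing of template-switched cDNA on Illumina gave cleaved and total reads, and DNA sequencing assigned barcodes to variants. Each variant's relative activity is its cleaved/total read fraction divided by the unmutated ribozyme's fraction, averaged across three batches. A variant needed a minimum of 5 reads.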
row,Variant,self-cleavage
1,C4U G9U G52U A57G A75G,0.09
2,C4U G10A A15G A21U U31A A45G A47G,0.05
3,C4U G10A A15U A21U U25C U31A,0.07
4,C4U G16U U72A,0.57
5,C4U G19U U58A,0.13
6,C4U G22C A47U,0.11
7,C4U G24A C27G U60C,0.09
8,C4U G30A U58C U78C,0.07
9,C4U G33A A47U A65G U69A,0.15
10,C4U G36C A45G,0.47
11,C4U G53U U60C,0.53
12,C4U U25C A28U G30A U67C,0.15
13,C4U U25C A45G U49C,0.24
14,C4U U25C A75G U78C,0.08
15,C4U U25C U26A A28G U48C,0.35
16,C4U U25C U26A U58C U72A U76C,0.16
17,C4U U26A G33C U58A,0.1
18,C4U U26A U51C U74A A77G,1.26
19,C4U U26A U58C U66C U72A U76C,0.18
20,C4U U26A U58C U72A U76C,0.42
21,C4U U26A U76C,1.03
22,C4U U26C A64G U69A U78C,0.28
23,C4U U26C U41G A56G U74C U80C,0.29
24,C4U U26C U43A U51C U74C,0.45

row,Variant,self-cleavage
1,C4U U31A A35U U48C U80C,0.18
2,C4U U31A A65G,0.62
3,C4U U31A U43C U51C,0.3
4,C4U U31G A56G U58C U80C,0.18
5,C4U U41A A45C,0.17
6,C4U U41A A57G U78A,0.33
7,C4U U41C A47C A56U,0.26
8,C4U U41C A47U A57G,0.19
9,C4U U41C A47U A65G U72C,0.35
10,C4U U41C C44U,0.56
11,C4U U43C G46U A56G U80G,0.24
12,C4U U43C U54C,0.39
13,C4U U43G U58G,0.32
14,C4U U48A G52U G53A U54C,1.12
15,C4U U48C U54C,0.3
16,C4U U49C G52U,0.51
17,C4U U51C C62U A64G U76A,0.35
18,C4U U51C U54A A56U A57U A77U,0.85
19,C4U U51C U76A U80C,1.25
20,C4U U54C U67G,0.59
21,C4U U58A C62U U80C,0.14
22,C4U U72C U78A C81U,1.32
23,A5C A13G A35G U69G A75G,0.12
24,A5C A13G G19U,0.1

row,Variant,self-cleavage
1,A5C A13G G24C U69A G73U,0.38
2,A5C A13G U67A U78C,0.42
3,A5C A13U U25C C40U A45U A56U U60C,0.05
4,A5C A13U U26C A28G C39A U69C,0
5,A5C A13U U72A,0.55
6,A5C A15G A18G,0.91
7,A5C A15G A18U U26C,0.2
8,A5C A15G A56U,0.39
9,A5C A15G A56U A75U,0.5
10,A5C A15G G22A U41C A57G U80C,0.1
11,A5C A15G G24U U25C A57G,0.11
12,A5C A15G U41G A65G U72C U80C,0.53
13,A5C A15G U54C U58C,0.31
14,A5C A15U A35U,0.47
15,A5C A18G A45G A57G,0.55
16,A5C A18G A75U,0.35
17,A5C A18G U49G,0.64
18,A5C A18G U54C,0.28
19,A5C A18G U54C A56U,0.5
20,A5C A18G U67C,0.12
21,A5C A18U A45U,0.33
22,A5C A18U C37G,0.39
23,A5C A20G A21G U25C A45G U54A,0.21
24,A5C A20G U25C U26C A57U U72C,0.48

row,Variant,self-cleavage
1,A5C A20G U26A A56U,0.49
2,A5C A20U A35G U49C,0.14
3,A5C A20U U41A A47G U67C,0.18
4,A5C A21G A57G C62U U72C U80A,0.09
5,A5C A21G G52C G63A,0.42
6,A5C A21G U51A U60A,0.19
7,A5C A28G A64G,0.52
8,A5C A28G A65G A75U,0.18
9,A5C A28G U31C U66C,0.27
10,A5C A35C U69C,0.34
11,A5C A35G A45G U48C U60G U67C,0.5
12,A5C A35G U60A,1.19
13,A5C A35U A47G,0.39
14,A5C A35U U54G,0.49
15,A5C A35U U58C,0.17
16,A5C A57G U78C,0.72
17,A5C A64G U69G,0.28
18,A5C A65U U78C,0.21
19,A5C C11G A20G A64U,0.08
20,A5C C11U A28U U66C,0.07
21,A5C C11U G16A A28G U54G A75G,0.04
22,A5C C11U U41C A57G C59U,0.15
23,A5C C11U U49C U58C U60A U78A,0.06
24,A5C C12A C71U G73A,1.23

row,Variant,self-cleavage
1,A5C C12U U31C U41C U72C,0.88
2,A5C C27U A56G A57G C62G U80C,0.17
3,A5C C34G A64U,0.33
4,A5C C34U U48C U58C U66C,0.18
5,A5C C38U U67C A75U C81U,0.08
6,A5C C59A U80C,0.48
7,A5C G6A A20G U67C,0.09
8,A5C G7A A21G U25C U26A A64G U69A,0.11
9,A5C G8A A21G C29U,0.03
10,A5C G9U A15G A18U C38A U48C,0.21
11,A5C G9U A28U C32U,0.27
12,A5C G10A A28G U76A,0.45
13,A5C G16A A28G A56G U58C U60C,0.22
14,A5C G16C G33U U41C,0.07
15,A5C G24A C38G U41G U51A,0.13
16,A5C G24A U31C G42A A57U U66C,0.1
17,A5C G24A U41A U80C,0.31
18,A5C G30A A35U,0.24
19,A5C G30A C40A U43C,0.34
20,A5C G52U A65G U80G,0.56
21,A5C G53A U58C U74C,1.05
22,A5C U25A G30A,0.44
23,A5C U25C A28G A65G A75U,0.06
24,A5C U25C A35G G73A,0.25

row,Variant,self-cleavage
1,A5C U25G A35G,0.11
2,A5C U26A U60A U66A U74C U76C,0.36
3,A5C U26C C44A U51C,0.09
4,A5C U26C G33A G52A U58G A65G,0.08
5,A5C U26C G46A,0.34
6,A5C U31A U72A,0.13
7,A5C U31C U41C U58A,0.27
8,A5C U41A A57U U67A,0.14
9,A5C U41A A75U,0.17
10,A5C U41C A47G U49C C59U U72C,0.35
11,A5C U41C U48C U72C,0.36
12,A5C U41C U49C,0.54
13,A5C U43A U51A U74C,1.13
14,A5C U43C U51G A64G U66C,0.11
15,A5C U43C U74C,0.82
16,A5C U43C U74C U80C,0.93
17,A5C U48C G53A U66C U67G U72C,0.15
18,A5C U48C U69A U78C,0.35
19,A5C U49C U51C C62U U76A,0.29
20,A5C U51A U66C,0.49
21,A5C U51G C62U A64G U78C,0.17
22,A5C U54C U72C,1.2
23,A5C U54G U74A,0.95
24,A5C U60A A77U,0.42

row,Variant,self-cleavage
1,A5C U66A U78C,0.27
2,A5C U69G U78C,0.63
3,A5G A13C A15G,0.71
4,A5G A13C A15G G55A,0.26
5,A5G A13C A20G U41C A64G U72C A77G,0.1
6,A5G A13C G24A A45U,0.32
7,A5G A13C U26A U49C U60C,0.12
8,A5G A13G A15C A45U,0.11
9,A5G A13G A15G A28G,0.14
10,A5G A13G A15U C29G U74C,0.13
11,A5G A13G A18G U54A U69C,0.59
12,A5G A13G A18U A57G,0.19
13,A5G A13G A18U G33A A65G,0.16
14,A5G A13G A21G A47G U80C,0.67
15,A5G A13G A21G U26C A45G A64U U76A,0
16,A5G A13G A21G U51G,0.24
17,A5G A13G A28U A47G A57G A77U,0.09
18,A5G A13G A28U U51A U69G U80C,0.16
19,A5G A13G A28U U78C,0.2
20,A5G A13G A35U A47U U49A U60C A64G,0.06
21,A5G A13G A47G G63U,0.98
22,A5G A13G A56C U76A,0.19
23,A5G A13G C14U G33A U41A G52U,0.06
